Measurements published in the supplement of paper PMC3334620.
Whole data set: some 33,000 sequences, median “E-score (-0.5 to 0.5)” near -0.043, cut for the highest 2% near 0.37. The list shows a part of the results.

biological target: T1, Upc2 (UniProt Q12151); assay: PBM E-score (8-mer binding enrichment) (E-score (-0.5 to 0.5)); higher = stronger / more preferred TF binding; most listed sequences are background and not binding sites; details: protein concentration: 200 nM; construct: GST-full length
T1 sequence: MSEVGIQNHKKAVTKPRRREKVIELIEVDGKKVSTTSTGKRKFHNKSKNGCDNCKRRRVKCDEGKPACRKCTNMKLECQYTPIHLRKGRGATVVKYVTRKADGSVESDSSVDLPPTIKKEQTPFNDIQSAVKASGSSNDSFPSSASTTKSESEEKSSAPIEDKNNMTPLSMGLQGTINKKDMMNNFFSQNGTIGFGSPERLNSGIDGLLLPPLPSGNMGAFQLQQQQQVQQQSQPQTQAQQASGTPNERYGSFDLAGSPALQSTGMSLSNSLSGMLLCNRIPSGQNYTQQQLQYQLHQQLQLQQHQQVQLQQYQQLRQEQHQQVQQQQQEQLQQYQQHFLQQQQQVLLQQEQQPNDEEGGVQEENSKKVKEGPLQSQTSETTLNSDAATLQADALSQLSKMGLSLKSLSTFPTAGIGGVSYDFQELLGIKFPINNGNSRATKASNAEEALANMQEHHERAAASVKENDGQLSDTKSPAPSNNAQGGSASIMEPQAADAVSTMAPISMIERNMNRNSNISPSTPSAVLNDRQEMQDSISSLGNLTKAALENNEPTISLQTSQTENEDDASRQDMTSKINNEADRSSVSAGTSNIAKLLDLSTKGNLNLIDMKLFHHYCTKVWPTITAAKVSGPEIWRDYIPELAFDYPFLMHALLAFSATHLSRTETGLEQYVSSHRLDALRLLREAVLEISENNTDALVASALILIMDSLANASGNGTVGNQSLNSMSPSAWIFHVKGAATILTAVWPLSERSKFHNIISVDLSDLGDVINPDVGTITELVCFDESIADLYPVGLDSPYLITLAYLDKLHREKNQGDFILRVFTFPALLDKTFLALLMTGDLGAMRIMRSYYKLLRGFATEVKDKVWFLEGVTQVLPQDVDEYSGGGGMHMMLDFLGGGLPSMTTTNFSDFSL
Procedure, shortened: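 Universal all-10-mer Agilent arrays, fresh or stripped once, were converted to double-stranded form by primer extension. GST-tagged yeast transcription factors from PURExpress in vitro transcription/translation, full-length or DNA-binding domain only, were applied at about 100-200 nM and detected with fluorescent anti-GST. After masliner normalisation, the Universal PBM Analysis Suite scored each ungapped eight-base word together with its reverse complement by E-score.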

Sequence | PBM E-score
CCGTCATC | -0.138
ATGATTCA | -0.0951
AGATTAGA | -0.141
AAGTTCGT | 0.285
GAGCTGCA | 0.0412
ATGACCTA | 0.0652
CGCGCCCC | -0.21
GAATACCC | -0.0182
CTTTATAC | 0.303
CGCCAGAC | 0.0501
ACAAGTAA | -0.0231
CAGACTCC | -0.141
AGACGAGC | 0.206
GCCTCCAA | -0.227
GCCGGAGA | 0.0079
CTGCGCTA | -0.00207
CCATGACG | 0.0362
ACCGCTTG | -0.0281
CAACGGGA | -0.0408
CGACATCC | 0.139
AGATTTCC | -0.0644
ACGTTCTA | 0.111
AAGGCAAA | -0.0665
CTGGTCTA | -0.14
GCCGACTA | 0.0688

Sequence | PBM E-score
AGTAGAAT | -0.133
TCGCGAAA | 0.259
TACGAGAA | 0.447
CCGCATCG | 0.00181
TGAAATAA | -0.065
CTAAAATC | -0.126
GCTTTTAA | -0.0112
AACAGGAG | -0.196
CGCGTGAC | 0.0176
GTGGTACA | -0.0906
CGAATAAG | 0.238
CAACACGA | 0.079
CAAGTCCA | -0.243
AACGCAAG | -0.115
CGGCCCGA | -0.0827
CAACCCCC | -0.308
GCCTACGA | 0.249
ACCACGCC | -0.0536
TCGACCGA | -0.0426
GTATCGTA | 0.423
CTTATAGA | 0.107
TAAGTCAA | -0.0287
GACAATCC | -0.137
AAGCAAGA | -0.189
ACCATTGA | 0.0696

Sequence | PBM E-score
AATCAGTC | -0.0216
CAGACCGC | -0.0953
ACTATCAG | -0.196
CACATTCA | -0.183
CCAAAAAC | 0.0374
AGATCTCG | 0.235
CAATTGGA | -0.255
ATGGTTTC | 0.0347
ACCGGGCG | -0.0214
ATGCTAGC | -0.0375
AGTACTGA | -0.104
ATTCACTG | -0.23
AGCGTGCA | -0.0197
CTAATGGC | -0.133
CGGTGGGA | -0.0339
CCCACAAC | -0.0274
ATAGGCCA | 0.123
AAAACTCT | -0.131
CACTCGCA | 0.0657
AGACGTCC | -0.155
ATCTGAAA | -0.00539
CCCTGTAG | -0.234
CACCGGGG | -0.211
GATACTGC | -0.123
ACGAAACG | 0.403

Sequence | PBM E-score
CACTCAAC | 0.0712
GGTGGATA | -0.171
TAGATAAA | 0.12
CGCTCGAA | 0.0556
GACAAGTA | -0.0872
ACAAACCG | 0.0738
AAACCACA | -0.118
AGAGCTTC | -0.19
AGGTCCTG | -0.0608
CCGTTTTA | 0.118
CCAATTGG | 0.0685
GACTAACC | -0.118
GCTGCTTA | 0.0313
ACATAGTG | -0.128
CAAGGGAG | -0.14
AAGCCGGT | -0.131
GCGGGAGC | -0.183
ATCCCCAT | -0.179
ATGTATGC | 0.0498
CCGTACGC | 0.308
ATCTAATA | 0.202
CCCCATCA | -0.236
CAGCTATC | -0.198
ACTAGACA | -0.171
CGTAGATC | 0.182

Sequence | PBM E-score
TATTGTGA | 0.0151
AGCTTCGC | 0.0496
CGTCCTAG | -0.202
AAAGACTA | 0.0661
ATGCAGCG | -0.136
AAAACGAC | 0.375
AGAATAGG | 0.14
AGAGGATA | -0.0298
ATGATCCG | -0.0506
AGTGGTAC | 0.18
CCTGCCAG | -0.285
ACGTTCCG | 0.169
GTTCCGGA | -0.021
AATCCTAT | -0.0872
CCAGGTTC | -0.287
CCCAATCC | -0.194
CCATCAGC | -0.138
GGAGACAA | -0.0252
CTTTCCTC | -0.179
GCGACCCA | -0.118
CCCCCCGC | -0.101
GGCAGGCC | -0.295
GCTGTGCA | -0.0365
CAAAGGTG | -0.244
GGCCAGCA | -0.302

Sequence | PBM E-score
ACGCGAGC | 0.262
AGCTGTTG | -0.208
TCGAGTAA | 0.0386
AGGCGCCT | 0.0931
ATGAGAAG | -0.105
ACGGGGAT | 0.151
AACGAATA | 0.381
CACCCTCG | 0.0904
GCAGTAGC | -0.174
TTGGAAAA | -0.017
AGGCAATA | -0.239
CTTGGGTC | -0.286
GAGGTCCA | -0.289
CAAACTGG | -0.178
CTAGGGAC | -0.19
CAGCCATA | 0.135
CACAGAAC | 0.127
GTGTCTCA | -0.12
AAGTCTGA | -0.255
CGAGGCCG | 0.148
CCACATGG | -0.229
CACGTGTA | 0.22
GACATCTA | 0.0629
AGGAGAAG | -0.146
CTTGTCAA | -0.133

Sequence | PBM E-score
AATAATAT | 0.0635
AGCCATTC | -0.0765
AGTACGAC | 0.409
CCATAGGA | -0.163
TCCAGGAA | -0.0505
AAATTCAG | 0.172
CACCCAAA | 0.08
ACCAATAA | -0.2
CTGCGTAA | 0.167
CTTTTGCA | -0.012
TCCCCTAA | -0.151
TCGCAAGA | -0.0178
CTTGACGC | -0.165
GTCGGAGA | 0.00706
ACTGCTGC | -0.189
ATCCAGAG | -0.00777
GTGCAAAA | -0.0818
AGTCAGCG | -0.274
GAACCACC | 0.00279
CATATCAA | -0.0224
GGCCCCAA | -0.103
CGCTAGGC | -0.275
